Results taken from the supplement of paper PMC3334620.
Over roughly 33,000 sequences, “E-score (-0.5 to 0.5)” has its median near -0.032; the highest 2% begin near 0.36. The list shows a part of the results.

molecular target: T1, Sko1 (UniProt Q02100); test: PBM E-score (8-mer binding enrichment) (E-score (-0.5 to 0.5)); higher = stronger / more preferred TF binding; most listed sequences are background and not binding sites; conditions: protein concentration: 200 nM; construct: GST-full length
T1 sequence: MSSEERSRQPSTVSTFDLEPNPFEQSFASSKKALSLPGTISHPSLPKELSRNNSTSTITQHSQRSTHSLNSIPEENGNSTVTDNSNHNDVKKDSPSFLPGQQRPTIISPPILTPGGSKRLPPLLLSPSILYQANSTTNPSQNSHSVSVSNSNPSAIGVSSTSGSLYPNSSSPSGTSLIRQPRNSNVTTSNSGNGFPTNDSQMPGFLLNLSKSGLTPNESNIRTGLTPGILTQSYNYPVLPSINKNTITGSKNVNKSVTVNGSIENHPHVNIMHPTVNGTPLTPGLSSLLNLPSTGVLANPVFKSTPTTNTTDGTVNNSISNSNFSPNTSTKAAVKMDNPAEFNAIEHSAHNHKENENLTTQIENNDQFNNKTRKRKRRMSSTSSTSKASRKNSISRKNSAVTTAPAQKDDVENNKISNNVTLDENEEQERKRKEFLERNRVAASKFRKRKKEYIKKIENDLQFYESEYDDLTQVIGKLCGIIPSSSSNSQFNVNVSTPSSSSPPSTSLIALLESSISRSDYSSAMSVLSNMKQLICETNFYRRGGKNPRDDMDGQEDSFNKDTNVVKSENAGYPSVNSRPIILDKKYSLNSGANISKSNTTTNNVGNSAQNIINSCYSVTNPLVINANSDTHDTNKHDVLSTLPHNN
In short: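 Universal all-10-mer Agilent arrays, double-stranded by primer extension on fresh or once-stripped slides, were probed with about 100-200 nM GST-tagged yeast transcription factors made by PURExpress. Fluorescent anti-GST detected bound protein, and masliner normalised the scans. E-scores from the Universal PBM Analysis Suite were given to each ungapped eight-base word pooled with its reverse complement.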

| Sequence | PBM E-score |
| --- | --- |
| ATGCACCG | -0.187 |
| AAGTGGTC | -0.0401 |
| CTGCCATC | -0.14 |
| GAGGTACC | -0.217 |
| ACCCGCTA | -0.176 |
| CGACACCC | -0.0454 |
| AGAAGTAA | 0.179 |
| ATTCTGTA | -0.0162 |
| AAATTATG | 0.253 |
| CGCATCTA | 0.182 |
| CATGTCCC | -0.146 |
| CCGTTAAG | -0.113 |
| GATCAGCC | -0.292 |
| TGCAATAA | 0.119 |
| CGGTAGAA | -0.302 |
| ATTGACGG | 0.0348 |
| CGGATTGA | 3e-05 |
| AACGTGAC | 0.277 |
| AGTTTGGG | -0.0813 |
| AGCGGATC | -0.206 |
| AATCAGTG | -0.121 |
| AATGATGC | 0.35 |
| AGCAAAAC | 0.0756 |
| GCCCTTAC | -0.103 |
| ACCACCAG | -0.181 |

| Sequence | PBM E-score |
| --- | --- |
| CTATAAGA | -0.0703 |
| GCGGGCAC | -0.199 |
| CAGGGGCC | -0.211 |
| ACTCGAGA | -0.107 |
| GTCATCGA | 0.331 |
| TCCGTCGA | -0.0164 |
| CTCCTCAG | -0.318 |
| TCGAAACA | 0.191 |
| CTTCCAGC | -0.253 |
| TCCTGCGA | -0.00234 |
| ATGCTTTA | 0.16 |
| GGCGCGCA | -0.0526 |
| CGGAGGTA | -0.261 |
| AGCTTTTC | 0.0539 |
| AGAGGTCG | -0.199 |
| CTTGTAAC | 0.0401 |
| AGGTTACG | 0.275 |
| CTCGAGTA | 0.0724 |
| GTAAGCAA | 0.0702 |
| ACATTAGT | -0.102 |
| CCGCAGTA | -0.299 |
| TACGAGGA | 0.0426 |
| AATACTTA | 0.178 |
| ATACTTAA | 0.211 |
| TAATTCGA | 0.198 |

| Sequence | PBM E-score |
| --- | --- |
| CTTTTGGC | -0.00678 |
| AATGCAAC | 0.0487 |
| CTGACATC | 0.21 |
| ATTTCAGC | -0.0364 |
| CAGTTTAA | 0.0363 |
| ACCTGGGA | -0.12 |
| CGGCAGTA | -0.303 |
| AGGTAGAG | -0.12 |
| ACAGCGAC | 0.0149 |
| ATTCCCGG | -0.0536 |
| AAAAATAA | 0.193 |
| TTAAGAAA | 0.113 |
| AGAAAATA | 0.157 |
| CACGTGGG | 0.281 |
| CCCGGTCC | -0.35 |
| GCTCAAGC | -0.242 |
| GGCCCATA | -0.146 |
| AAGCTTGC | 0.0431 |
| GGACGCTA | -0.14 |
| CCGTAGAA | -0.14 |
| ACCGCGAC | 0.021 |
| CTAGATAG | -0.196 |
| ATACGGAA | 0.141 |
| ACCTGCCT | -0.183 |
| CCGATCGA | 0.0223 |

| Sequence | PBM E-score |
| --- | --- |
| AGTCACGC | 0.167 |
| GATAGAAA | -0.0195 |
| TCCCAGGA | -0.301 |
| AAATCTTC | -0.025 |
| GAATTCCA | -0.0319 |
| AGAGAACC | -0.32 |
| ACTTGGGC | -0.139 |
| CCTAAGAG | -0.0999 |
| TGGCCCCA | -0.186 |
| AGAGAACA | 0.105 |
| ACATAGCC | -0.0347 |
| CCCGCTGA | -0.178 |
| ATTCCCGC | -0.0529 |
| AGGAGCCG | -0.274 |
| CCCTATTC | -0.349 |
| AGGCAGAG | -0.161 |
| ACTCCACC | -0.123 |
| GGTGGTCA | -0.213 |
| TGTGGAAA | 0.128 |
| ATCTTTTC | 0.165 |
| AACTATTC | 0.133 |
| CACCTCGC | -0.206 |
| AGTTATTG | 0.0629 |
| CAAGCGTA | 0.22 |
| CTTAACAC | 0.0806 |

| Sequence | PBM E-score |
| --- | --- |
| CCCTGCAA | -0.0743 |
| AAGCCCTA | -0.023 |
| ACGGGAGT | -0.102 |
| CACATTCC | -0.129 |
| CCCATAGG | -0.202 |
| CCTTGGCA | -0.234 |
| GTATCAAA | 0.162 |
| ACGGTTGC | -0.0961 |
| GTTATCGA | -0.0477 |
| ATGCGCGC | 0.0437 |
| ACTTAAAA | 0.241 |
| CTGGCCAA | -0.0089 |
| CGGCTATC | -0.218 |
| AAGGGGCC | -0.214 |
| AGTTACAG | -0.0199 |
| ACACGGTC | -0.0712 |
| CACGATAG | 0.0168 |
| CCAAATGA | 0.187 |
| CGAACGCC | -0.17 |
| AGCGGAAT | 0.0256 |
| GATCATTA | 0.211 |
| AGCTGGGC | -0.246 |
| GCAGTCAA | -0.262 |
| AGATCGAC | 0.0496 |
| TCCACACA | 0.0159 |

| Sequence | PBM E-score |
| --- | --- |
| AAATTCGA | -0.0439 |
| GGCATTGA | -0.104 |
| GCCAAGGC | -0.393 |
| CTAAAAAG | 0.0165 |
| CAGTGTCG | -0.0823 |
| ATGCACTG | -0.0475 |
| AATATTTA | 0.325 |
| ACCAAAGA | 0.0963 |
| TAGCAATA | 0.165 |
| ATTGGGAG | -0.154 |
| CACTACTC | 0.0536 |
| AGAACAAT | 0.191 |
| CGTATAGC | 0.234 |
| GTCGTAAA | 0.282 |
| AAAGTGTG | 0.0355 |
| AAAACTCC | -0.208 |
| CCAACACC | -0.273 |
| ATCTTGCA | 0.112 |
| CCGGACAC | -0.217 |
| GAAGCACC | -0.0674 |
| CCGTGCAG | 0.035 |
| GACTACTC | 0.0323 |
| ATCGGATC | -0.00721 |
| CAATCCAA | 0.0526 |
| AGGCGTTA | -0.209 |

| Sequence | PBM E-score |
| --- | --- |
| ACGTGTAC | 0.409 |
| CTCGCCGA | -0.198 |
| AGTATAAT | 0.0736 |
| TACTACCA | -0.173 |
| CAAAGATA | 0.139 |
| CGTCCAGA | 0.14 |
| GCATATCC | -0.135 |
| GAACGCGA | 0.0396 |
| CGAATTCG | -0.0359 |
| ATATGTAC | 0.19 |
| CGCGCACC | 0.00717 |
| AGAGCAGA | -0.0457 |
| ACCGTATA | 0.0367 |
| CAGAGGCA | -0.00209 |
| AGACGGAT | 0.0284 |
| ATAGAAAA | 0.142 |
| AAGCCGCT | -0.251 |
| ACTCTCAC | -0.0768 |
| AGATACTG | 0.0876 |
| CATAATAA | 0.345 |
| AATTGCGT | 0.448 |
| AATATTGC | 0.257 |
